Hit rate of the full screen: of about 45,000 compounds, about 200 (0.44%) were called active. Another 7% or so got no clear call; they are omitted. Calls come from the whole dose curve; as a rule, active = well fitted activation curve with a large enough effect; inconclusive = small, poorly fitted or top-dose-only effect; inactive = no such curve, though single readings can be large or run the other way. The list shows a part of the results.
assay: qHTS of TDP-43 Inhibitors: NCGC Sytravon Library Screen; details: yeast TDP-43 toxicity rescue, BacTiter-Glo growth, 24 h; series mostly up to 46.1 µM; growth rescue (activation): at the top concentration; note: nearly all actives have a fitted effect of over 55% in size; for growth rescue (activation): 0% is about no effect
Method in brief: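 TDP-43-expressing yeast, pregrown in raffinose, seeded at OD600 0.02 in galactose medium with compound for 24 hr at 30 deg C. Growth read by BacTiter-Glo luminescence, so rescue of toxicity appears as activation.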
Potency is the fitted concentration of half-maximal effect.

Structure (SMILES)	growth rescue (activation)	Potency
NC1=NC(=O)C(Cc2ccc(F)cc2)S1 (centres undefined)	inactive: 3.75%	
c1ccc2[nH]c(CSc3nc4ccccc4s3)nc2c1	inactive: -8.27%	
C=CCOC(=O)C1=C(C)NC(=O)NC1/C=C/c1ccccc1 (centres undefined)	inactive: 1.3%	
Cc1c(CC(=O)NCCCCCC(=O)O)c(=O)oc2cc3c(cc12)CCC(C)(C)O3	inactive: 10.8%	
COC(=O)c1cc(OC(=O)CCc2ccc(OC)c(OC)c2)cc(C(=O)OC)c1	inactive: 0.669%	
COc1ccc(-c2nc(CNS(=O)(=O)c3cccc(F)c3)cs2)cc1		active: 15.8 µM
Cc1ccc(S(=O)(=O)N2CCCC(C(=O)NCc3ccc4c(c3)OCO4)C2)cc1 (centres undefined)	inactive: -6.38%	
CC(=O)Nc1cnc(-c2ccccc2O)cn1	inactive: -0.825%	
CCCc1nnc(SCC(=O)NC2CCCC2)n1CCOC	inactive: 7.57%	
COc1ccccc1-c1nc(-c2ccccc2)[nH]c(=O)c1C#N	inactive: 11.4%	
CC(C)CC(N)c1csc(Nc2ccc(C(=O)N(C)Cc3ccccc3)cn2)n1 (centres undefined)	inactive: -5.92%	
COc1ccc2c(c1)c(C(=O)CN1CCC3(CC1)OCCO3)c(C)n2C	inactive: 3.96%	
O=C(c1cccc(C(F)(F)F)c1)N(c1ccccn1)C1CCCCC1	inactive: 1.04%	
CC(C)CNc1nc(N)c([N+](=O)[O-])c(N2CCCCCC2)n1	inactive: 8.15%	
CC(=O)NN1C(=O)c2ccccc2NC1c1ccccc1 (centres undefined)	inactive: -19.6%	
COc1ccc(Cl)cc1NC(=O)CN1CCN(S(=O)(=O)N2CCC(C)CC2)CC1	inactive: 17.3%	
CN1CCC(N(C)C(=O)c2cccc(S(=O)(=O)N3CCc4ccccc43)c2)CC1	inactive: 2.54%	
N#Cc1ccc(C(=O)Nc2cc(S(=O)(=O)Nc3ccc(Cl)cc3)ccc2N2CCCCC2)cc1	inactive: -14%	
CCOC(=O)c1cc(OC)c2cccc(CN3CCC(C)(C(=O)NCCOC)C3)c2c1 (centres undefined)	inactive: 4.41%	
COc1cc(/C=c2\s/c(=C\C(=O)C(C)(C)C)[nH]c2=O)cc(OC)c1OC	inactive: 17.4%	
CCN1CCN(c2ccc(NC(=O)COc3ccc([N+](=O)[O-])cc3)cc2)CC1	inactive: 3.03%	
O=[N+]([O-])c1cccc(-c2nnc3ccc4ccccc4n23)c1	inactive: 9.9%	
C=CCSc1nc2sc3c(c2c(=O)[nH]1)CC(C)(CC)OC3 (centres undefined)	inactive: 9.96%	
Cc1ccc(NC(=O)c2ccc(S(=O)(=O)N3CCOCC3)cc2)cc1	inactive: 11%	
CCOc1ccc(-n2c(-c3ccc(Br)cc3)c[n+]3c2CCCCC3)cc1	inactive: 0.836%	
Cc1ccc2c(c1)N(CC(=O)NCCCN1CCOCC1)C(=O)C(C(C)C)O2 (centres undefined)	inactive: -17.5%	
CN1CCC(=NNc2ccc(S(=O)(=O)N3CCOCC3)cc2[N+](=O)[O-])CC1	inactive: 7.86%	

Structure (SMILES)	growth rescue (activation)	Potency
CC(C(=O)N1CCCCC1)n1sc2ccccc2c1=O (centres undefined)	inactive: 5.43%	
O=C(COc1ccccc1Cl)Nc1ccc(CN2CCCCC2)cc1	inactive: -1.8%	
Cc1ccc(Cl)cc1NC(=O)c1ccc(Cn2cc(Cl)cn2)cc1	inactive: 22.6%	
CC1CCN(C(=O)COc2ccc(S(=O)(=O)N3CCCC3)cc2)CC1	inactive: 3.35%	
O=C(Cc1ccsc1)Nc1ccccc1F	inactive: 11.7%	
O=C(CN(C(=O)c1csnn1)c1cccc2ccccc12)NCc1ccc(F)cc1	inactive: 0.186%	
CN(C)/C=C/C1=C([N+](=O)[O-])C(c2cccc([N+](=O)[O-])c2)NC(=O)N1 (centres undefined)	inactive: 10.4%	
COc1ccccc1NC(=O)NC1(C)CCS(=O)(=O)C1 (centres undefined)	inactive: 17.6%	
CCN(CC(=O)Nc1ccc(C(=O)OC)cc1)C1CCCCC1	inactive: 16%	
Cc1ccccc1-n1ncc2c1CC(C)(C)CC2NC(=O)C1=CC(=O)CC(C)(C)O1 (centres undefined)	inactive: 18.6%	
COc1ccc(NC(=O)CCNS(=O)(=O)c2ccc(C)c(C)c2)cc1OC	inactive: 2.19%	
O=c1nc(Nc2ccc([N+](=O)[O-])cc2)[nH]c(=O)[nH]1	inactive: 12.7%	
CN(CCCN1CCOCC1)C(=O)c1cc(COc2c(F)cccc2F)on1	inactive: -1.49%	
CC(=O)NN1C(=O)c2ccccc2NC1c1ccccc1O (centres undefined)	inactive: -15.5%	
O=c1c2oc3ccccc3c2ncn1Cc1cccc(Cl)c1	inactive: -8.12%	
Cc1cccc(C(=O)Nc2nnc(COc3ccccc3)s2)c1	inactive: 12%	
COc1ccc(CC(=O)OCC(=O)NCc2ccc(C)cc2)cc1OC	inactive: 23.4%	
Cc1ccc(C(=O)c2ccccc2C(=O)OCC(=O)NCCc2ccccc2)cc1	inactive: 25.5%	
CC(=O)c1ccc(NC(=O)C(C)Sc2nnc(-c3ccncc3)n2C2CC2)cc1 (centres undefined)	inactive: 10.6%	
Cc1cnc(C(=O)Nc2cccc(S(=O)(=O)N(C)C)c2)cn1	inactive: 4.97%	
Cc1cc(C=O)c(C)n1-c1cc(C(F)(F)F)ccc1N1CCOCC1	inactive: 22.4%	
COc1ccc(OC)c(NC(=O)C2C(C(=O)O)C3(Cl)C(Cl)=C(Cl)C2(Cl)C3(Cl)Cl)c1 (centres undefined)	inactive: -9.37%	
CCCc1cc(=O)[nH]c(Nc2ccc(OCC)cc2)n1	inactive: 14.8%	
Cc1nc(NC(=O)COC(=O)C2CC3CCCC(C2)C3=O)c(Cl)cc1Cl (centres undefined)	inactive: 19.7%	
CCCCOc1ccc(C2CC(=O)N(C)C2=O)cc1 (centres undefined)	inactive: -1.38%	
Cc1ccsc1/C=N\Nc1cn[nH]c(=O)c1Cl	inactive: -3.04%	
COc1cc(C)ccc1OCCOc1c(C)cc(Cl)cc1Cl	inactive: 8.2%	
